Drawing on the RNAGym collection of RNA variant scans (doi:10.7554/elife.90254), this text covers self-cleavage for 39 variants.

Read counts are not given, so values of variants with three or more changes are uncertain.

To fix the notation:
B1: LINE1-full (parent)
chain: UACGUAGGUGGUUUUCCCCUGAUAGUGCUAAGGGGGCCUGGAAGUUUGGACUGGGCAGAGCUCAACACAGCGUGGCAAAGUGGCUGUGGCUAGACUGCCUCUCUGGAUUCCUCGUCACUCAGCAGGGCAUCUCUGAGAGAAAUGCC

Variants of B1 are the subject of the series. In words: self-cleavage, relative activity (ratio to wild type); higher = more cleavage; in vitro, sequencing; the parent is a self-cleaving ribozyme.
For the variant UACGUAGGUGGUUUUCCCCUGAUAGUGCUAAGGGGGCCUGGAAGUUUGGACAGGGCAGAGCUCAACACAGCGCGGCAAAGUGGCUGUGGCUAGACUGCCUCUCUGGAUUCCUCGUCACUCAGCAGGGCAUCUCUGAGAGAAAGGCC, the self-cleavage turned out to be 0.97.
With UACGUAGGUGGUUUUCCCCUGAUAGUGCUAAGGGGGCCUGGAAGUUUGGACCGGGCAGAGCUCUACACAGCGUGGCAAAGUGGCUGUGGCUAGACUGCCUCUCUGGAUUCCUCGUCAUUCAGCAGGGCAUCUCUGAGAGAAGUGCC, the self-cleavage came to 0.42.
Next, UACGUAGGUGGUUUUCCCCUGAUAGUGCUAAGGGGGCCUGGAAGUUUGGACAGGGCAGAGCUCAACACAGCGUGGCAAAGUGGCUGUGGCUAGACUGCCUCCCUGGAUUCCUCGACACUCAGCAGGGCAUCUCUGGGAGAAAUGCC: 0.79; UACGUAGGUGGUUUUCCCCUGAUAGUGCUAAGGGGGCCUGGAAGUUUGGACCGGGCAGAGCUCGACACAGCGUGGCAAAGUGGCUGUGGCUAGACUGCCUCUCUGGAUUCCUCGUCACUCAGCUGGGCAUCUCUGAGAGAAAUGCC: 0.23; UACGUAGGUGGUUUUCCCCUGAUAGUGCUAAGGGGGCCUGGAAGUUUGGACAGGGCAGAGCUCAACACAGCGUGGCAAAGUGGCUGUGGCUAGACUGCCUCUCUGGAUUCCUCGUCACCCAGCAGGGCAUCUCUGUGAGAAAUGCC: 2.55.
Next, UACGUAGGUGGUUUUCCCCUGAUAGUGCUAAGGGGGCCUGGAAGUUUGGACAGGGCAGAGCUCAACACAGCGUGGCAAAGUGGCUGUGGCUAGACCGCCUCUCCGGAUUCCUCGUCACUCAGCAGGGGAUCUCUGAGAGAAAUGCC: 0.15.
For UACGUAGGUGGUUUUCCCCUGAUAGUGCUAAGGGGGCCUGGAAGUUUGGACCGGGCAGAGCUCUACACUGCGUGACGAAGUGGCUGUGGCUAGACUGCCUCUCUGGAUUCCUCGUCACUCAGCAGGGCAUCUCUGAGAGAAAUGCC, the self-cleavage was determined as 0.03.
Take UACGUAGGUGGUUUUCCCCUGAUAGUGCUAAGGGGGCCUGGAAGUUUGGACCGGGCAGAGCUCAACACAGCGUGGCAAGGUGGCUGUGGCUAGACUGCCUCUCUGGAUUCCCCGUCACUCAGCAGGGCAUCUCUGAGAGAAAUGCC: the self-cleavage stood at 1.15.
Regarding UACGUAGGUGGUUUUCCCCUGAUAGUGCUAAGGGGGCCUGGAAGUUUGGACCGGGCAGAGCUCCACACCGCGUGGCAAAGUGGCUGUGGCUAGACUGCCUCUCUGGAUUCCUCGUCACUCAGCAGGGCAUCUCUGAGAGAAAUGCC, the self-cleavage worked out at 0.
On to UACGUAGGUGGUUUUCCCCUGAUAGUGCUAAGGGGGCCUGGAAGUUUGGACAGGGCAGAGCUCAACACAGCGUGGCAAAGCGGCUGUGGCUAGACUGCCUCUCUGGAUUCCUCGUCCCUCAGCAGGGCAUCUCUGAGAGAAAUGCC, for which the self-cleavage was 2.63.
The value for UACGUAGGUGGUUUUCCCCUGAUAGUGCUAAGGGGGCCUGGAAGUUUGGACAGGGCAGAGCUCAACACAGCGUGGCAAAGUGGCUGUGGCUAGACCGCCUCUCUGGAUUCCUCGUCACUCAGCAGGGCUUCUCUGAGAGAAAUGCC was 0.18; that for UACGUAGGUGGUUUUCCCCUGAUAGUGCUAAGGGGGCCUGGAAGUUUGGACCGGGCAGAGCUCAGCACAGCGUGGCAGAGUGGCUGUGGCUAGACUGCCUCUCUGGAUUCCUCGUCACUCAGCAGGGCAUCUCUGAGGGAAAUGCC was 0.
In the case of UACGUAGGUGGUUUUCCCCUGAUAGUGCUAAGGGGGCCUGGAAGUUUGGACCGGGCAGAGCUCAGCACAGGGUGGCAAAGUGGCUGUGGCUAGACUGCCUCUCUGGAUUCCUCGUCACUCAGCAGGGCAUCUCUGAGAGAAAUGCC, the self-cleavage came to 0.08.
Turning to UACGUAGGUGGUUUUCCCCUGAUAGUGCUAAGGGGGCCUGGAAGUUUGGACAGGGCAGAGCUCAACACAGCGUGGCAAAGUGGCAGUGGCUAGACCGCCUCUCUGGAUUCCUCGCCACUCAGCAGGGCAUCUCUGAGAGAAAUGCC, the self-cleavage was 0.49.
The value for UACGUAGGUGGUUUUCCCCUGAUAGUGCUAAGGGGGCCUGGAAGUUUGGACAGGGCAGAGCUCAACACAGCGUGGCAAAGUGGCAGUGGCUAGACUGCCUCUCUGGAUUCCACGUCACUCAGCAGGGCAUCUCUGAGAGAAAUGCC was 0.06; that for UACGUAGGUGGUUUUCCCCUGAUAGUGCUAAGGGGGCCUGGAAGUUUGGACCGGGCAGGGCUCAACACAGCGUGGCAAAGUAGCUGUGGCUAGACUGCCUCUCUGGAUUCCUCGUCACUCAGCAGGGCAUCUCUGAGAGAAAUGCC was 0.1; that for UACGUAGGUGGUUUUCCCCUGAUAGUGCUAAGGGGGCCUGGAAGUUUGGACCGGGCAGAGCUCAACACAGCGUGGCAAGGUGGCAGUGGCUAGACUGCCUCCCUGGAUUCCUCGUCACUCAGCAGGGCAUCUCUGAGAGAAAUGCC was 0.
Next, UACGUAGGUGGUUUUCCCCUGAUAGUGCUAAGGGGGCCUGGAAGUUUGGACCGGGCAGAGCUCAACACAGCGUGGCGAAGUGGCUGUGGCUAGACUGCCUCUCUGGAUUCCUCGUCACUCACCAGGGCAUCUCUGAGAGAAAUGCC: 1.92; UACGUAGGUGGUUUUCCCCUGAUAGUGCUAAGGGGGCCUGGAAGUUUGGACCGGGCAGAGCUCAACACAGCGUGGCAAGGUGGCUGUGGCUAGACUGCCUCUCUGGAUUCCUCGUCACUCAGCAGGGCAUCUCUGAGAGUAAUGCC: 1.11.
The value for UACGUAGGUGGUUUUCCCCUGAUAGUGCUAAGGGGGCCUGGAAGUUUGGACAGGGCAGAGCUCAACACAGCGUGGCAAAGUGGCUGUGGCUAGACUGCCUCACUGGACUCCUCGUCACUCAGCAGGGCAUCUCUGAGAGAAAUGCC was 1.46.
For UACGUAGGUGGUUUUCCCCUGAUAGUGCUAAGGGGGCCUGGAAGUUUGGACCGGGCAGAGCUCAACACGGCGUGGCAAAGUGGCUGUGGCUAGACUGCCUCUCUGGAUUCCUCGUCACCCAGCAGGGCAUCUCUGAGAGAAAUGCC, the self-cleavage came out at 0.
On to UACGUAGGUGGUUUUCCCCUGAUAGUGCUAAGGGGGCCUGGAAGUUUGGACCGGGCAGAGCUCUACACAGCGUGGCAAAGUGGUUGUGGCUAGACUGCCUCUCUGGAUUCCUCGUCACUCAGCAGGGCAUCUCUGAGAGAAAUGCC, for which the self-cleavage is 0.05.
Regarding UACGUAGGUGGUUUUCCCCUGAUAGUGCUAAGGGGGCCUGGAAGUUUGGACAGGGCAGAGCUCAACACAGCGUGGCAAAGUGGCUGUGGCUAGACUGCCUCUCUGGACUCCUCGUCACUCCGCAGGGCAUCUCUGAGAGAAAUGCC, the self-cleavage came out at 2.24.
Next, UACGUAGGUGGUUUUCCCCUGAUAGUGCUAAGGGGGCCUGGAAGUUUGGACCGGGCAGAGCUCAGCACAGCGUGGCAAAGUGGCUGUGGCUAGUCCGCCUCUCUGGAUUCCUCGUCACUCAGCAGGGCAUCUCUGAGAGAAAUGCC: 0.71; UACGUAGGUGGUUUUCCCCUGAUAGUGCUAAGGGGGCCUGGAAGUUUGGACCGGGCAGAGCUCAACACAGCGUGGCAAAGUGGCUGUGGCUUGACUGCCUCUCUGGAUUCCCCGUCACUCAGCAGGGCUUCUCUGAGAGAAAUGCC: 0.58.
As for UACGUAGGUGGUUUUCCCCUGAUAGUGCUAAGGGGGCCUGGAAGUUUGGACAGGGCAGAGCUCAACACAGCGUGGCAAAGCGGCUGUGCCUAGACUGCCCCUCUGGAUUCCUCGUCACUCAGCAGGGCAUCUCUGAGAGAAAUGCC, the self-cleavage is 0.
Turning to UACGUAGGUGGUUUUCCCCUGAUAGUGCUAAGGGGGCCUGGAAGUUUGGACCGGGCAGUGCUCAACACAGCGUGGCAAAGUGGCUGUGGCUAGACUGCCUCUCUGGAUUCCUCGUCACUCAGCAGGGCAUCUCUGAGAGGAAUGCC, the self-cleavage is 1.08.
The value for UACGUAGGUGGUUUUCCCCUGAUAGUGCUAAGGGGGCCUGGAAGUUUGGACAGGGCAGAGCUCAACACAGCGUGGCAAAGUGGCUGUGGCCAGACUGCCUCUCUGGAUUCCUCGUCACUCAGCAGGGCACCUCUGAGAGAAAUGCC was 1.41.
The value for UACGUAGGUGGUUUUCCCCUGAUAGUGCUAAGGGGGCCUGGAAGUUUGGACAGGGCAGAGCUCAACACAGCGUGGCAAAGUGGCUGGGGCUAGACUGACUCUCUGGAUUCCUCGCCACUCAGCAGGGCAUCUCUGAGAGGAAUGCC was 0.09; that for UACGUAGGUGGUUUUCCCCUGAUAGUGCUAAGGGGGCCUGGAAGUUUGGACCGGGCAGAGCUCAACACAGCGUGGCAAAGUGGCUGUGGCUAGUCUGCCUCUCUGGAUUCCUCGUCACUCAGCAGGGCAUCUCUGAGAGGAAUGCC was 0.21.
With UACGUAGGUGGUUUUCCCCUGAUAGUGCUAAGGGGGCCUGGAAGUUUGGACCGGGCAGAGCUCUACACAGCGUGGCAAAGUGGCUGUGGCUAGACAGCCUCUCUGGAUUCCUCGUCACUCAGCAGGGCAUCUCUGAGAGAAAUGCC, the self-cleavage was 0.09.
Take UACGUAGGUGGUUUUCCCCUGAUAGUGCUAAGGGGGCCUGGAAGUUUGGACCGGGCUGAGCUCAACACAGCGUGGCAAAGUGGCUGUGGCUAGACUGCCUCUCUGGAUCCCUCGUCACUCAGCAGGGCAUCUCUGAGAGAAAUGCC: the self-cleavage is 0.
The value for UACGUAGGUGGUUUUCCCCUGAUAGUGCUAAGGGGGCCUGGAAGUUUGGACCGGGCAGAGCUCAACACUGCGUGGCGAAGUGGCUGUGGCUAGACUGCCUCUCUGGAUUCCUCGUCACUCAGCAGGGCAUCUCUGAGAGAAAUGCC was 0.06.
UACGUAGGUGGUUUUCCCCUGAUAGUGCUAAGGGGGCCUGGAAGUUUGGACCGGGCAGAGCUCAACGCAGCGUGGCAAAGUGGCUGUGGCUAGACUGCCUCCCUGGAUUCCUCGUCACUCAGCAGGGCAUCUCUGAGAGAAAUGCC: the self-cleavage was found to be 0.
UACGUAGGUGGUUUUCCCCUGAUAGUGCUAAGGGGGCCUGGAAGUUUGGACCGGGCAGAGCUCAACACAGCGUGGCAGAGUGGCUGCGGCUAGACUGCCUCUCUGGAUUCCUCGUCACUCAGCAGGGCAUCUCUGAGAGAAAUGCC: the self-cleavage came to 0.
Take UACGUAGGUGGUUUUCCCCUGAUAGUGCUAAGGGGGCCUGGAAGUUUGGACAGGGCAGAGCUCAACACAGCGUGGCAAAGUGGCUGUGGCUAGACUGCCACUCUGGAUUCCUCGUCACUCAGCAGGGCAUCCCUGAGAGAAAUGCC: the self-cleavage was 1.67.
Take UACGUAGGUGGUUUUCCCCUGAUAGUGCUAAGGGGGCCUGGAAGUUUGGACCGGGCAGGGCACUACACAGCGUGGCAAAGUGGCUGUGGCUAGACUGCCUCUCUGGAUUCCUCGUCACUCAGCAGGGCAUCUCUGAGAGAAAUGCC: the self-cleavage came to 0.04.
Next, UACGUAGGUGGUUUUCCCCUGAUAGUGCUAAGGGGGCCUGGAAGUUUGGACAGGGCAGAGCUCAACACAGCGUGGCAAAGUGGCUGUGGCUAGACUGCCUCUCUGGAUACCUCGCCGCUCAGCAGGGCAUCUCUGAGAGAGAUGCC: 2.15.
The value for UACGUAGGUGGUUUUCCCCUGAUAGUGCUAAGGGGGCCUGGAAGUUUGGACAGGGCAGAGCUCAACACAGCGUGGCAAAGUGGCUGUGGCUAGACAGCCUCUCUGGAUUCCUCGUCACUCAGUAGGGCAUCUCUGAGAGAAAUGCC was 0.07.
